According to PubChem BioAssay AID1460 (National Center for Advancing Translational Sciences (NCATS), 2008):
Out of some 270,000 compounds screened, about 5,800 (2.1%) were called active. The inconclusive results got no clear call from the source; some entries with a clear call stand among them for comparison. The call rests on the fitted dose curve; in most records, active means well fitted inhibition curve with a large enough effect; inconclusive means small, poorly fitted or top-dose-only effect; inactive means flat fitted curve, though single readings scatter. Potencies beside an inconclusive call are fits to weak or partial responses and may not hold up.

Each compound was assayed against Microtubule-associated protein tau (Homo sapiens) (UniProt P10636) (assay: qHTS for Inhibitors of Tau Fibril Formation, Thioflavin T Binding). Conditions: recombinant tau K18 P301L (four-repeat tau fragment), heparin-induced fibrillization, ThT fluorescence; series mostly up to 57.4 µM.
In short: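 In this qHTS, human K18 P301L tau is incubated with compound and heparin for 6 hr at 37 C, and Thioflavin T fluorescence then reports fibril load.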
Further: nearly all actives have a fitted effect of over 55% in size.
Potency means the concentration at half of the fitted maximal effect; tags describe the fitted curve by direction and shape.

UniProt P10636, sequence (P10636 whole entry, looked up, the tested form may be a part): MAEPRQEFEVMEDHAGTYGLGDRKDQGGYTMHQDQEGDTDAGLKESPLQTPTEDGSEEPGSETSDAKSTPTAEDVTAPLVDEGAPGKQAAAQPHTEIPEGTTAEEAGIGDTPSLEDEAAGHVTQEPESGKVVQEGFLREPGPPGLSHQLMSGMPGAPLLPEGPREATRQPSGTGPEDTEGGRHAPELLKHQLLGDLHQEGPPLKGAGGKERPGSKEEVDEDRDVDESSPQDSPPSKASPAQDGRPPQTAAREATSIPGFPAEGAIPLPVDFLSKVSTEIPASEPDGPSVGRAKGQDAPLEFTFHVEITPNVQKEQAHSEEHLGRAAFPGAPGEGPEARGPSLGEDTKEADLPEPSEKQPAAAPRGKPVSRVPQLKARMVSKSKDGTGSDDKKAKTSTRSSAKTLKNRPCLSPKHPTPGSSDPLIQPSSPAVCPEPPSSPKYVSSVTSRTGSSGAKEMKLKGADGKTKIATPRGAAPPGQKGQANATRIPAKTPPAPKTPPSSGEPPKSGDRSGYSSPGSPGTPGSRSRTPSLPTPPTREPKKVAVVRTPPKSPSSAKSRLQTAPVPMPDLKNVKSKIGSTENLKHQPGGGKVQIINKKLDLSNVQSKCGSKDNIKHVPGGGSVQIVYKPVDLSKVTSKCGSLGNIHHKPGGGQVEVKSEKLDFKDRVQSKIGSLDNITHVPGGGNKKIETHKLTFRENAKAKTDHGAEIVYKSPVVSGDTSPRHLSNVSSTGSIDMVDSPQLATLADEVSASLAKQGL

Compound | Potency
COc1ccc2nc(SCC(=O)N(C)C3CCCCC3)c(C#N)cc2c1 | inconclusive: 22.4 µM [inhibitor, partial curve]
CCCCOC(=O)CCn1[nH]c(=O)c2ccccc2c1=O | inactive
COc1ccc(C(=O)NCc2nnc(SCC(=O)Nc3nc4ccc(C)cc4s3)o2)cc1OC | inconclusive: 3.16 µM [inhibitor, partial curve]
CCOc1ccc(CN(CCc2ccc3c(c2)OCO3)Cc2cc(OC)cc(OC)c2)cc1 | inactive
O=C(N/N=C/c1ccco1)c1ccc(N2CCCC2=O)cc1 | inconclusive: 11.2 µM [inhibitor, partial curve]
COc1ccc([C@H]2c3cc(OC)c(OC)cc3C[C@@H](C)[C@@H]2C)cc1OC | inactive
COC(=O)c1sc(N)c(C(=O)OC)c1COC(=O)C1CC(=O)N(Cc2ccco2)C1 (stereo not drawn) | inconclusive: 39.8 µM [inhibitor, single point]
COc1ccc(CCNC(=O)c2ccc3nc(-c4ccco4)c(-c4ccco4)nc3c2)cc1OC | active: 6.31 µM
CC(=O)Nc1ccc(S(=O)(=O)NNC(=O)c2cccc(Cl)c2)cc1 | inactive
CCN1CCN(Cc2ccc(NC(=O)c3cc(NC(=O)c4cc5cccc(OC)c5o4)cc(OC)c3)cc2C(F)(F)F)CC1 | inactive
COc1cc(CNn2c(C)n[nH]c2=S)cc(Cl)c1OCc1ccc(F)cc1 | inconclusive: 11.2 µM [inhibitor, partial curve]
O=S(=O)(NCCc1nnc2ccc(SCc3cccc(Cl)c3)nn12)c1ccccc1 | inconclusive: 14.1 µM [inhibitor, single point]
COc1ccc(OC)c(N2C(=O)C(Cl)=C(N3CCCCC3)C2=O)c1 | active: 12.6 µM
Cc1cc(N2CCN(C)CC2)nc2ccc(NC(=O)Nc3ccc(F)cc3)cc12 | inconclusive: 11.2 µM [inhibitor, partial curve]
COc1ccc(OC2C=CC(C#Cc3ccc(Br)cc3)OC2CO)c(C(C)(C)C)c1 (stereo not drawn) | inconclusive: 7.08 µM [inhibitor, single point]
COC(=O)c1ccc(/C=N/N2CCN(Cc3ccc(C)cc3C)CC2)cc1 | inconclusive: 12.6 µM [inhibitor, partial curve, poor fit]
CC(=O)Nc1ccc(NC(=O)C(C)OC(=O)/C=C/c2cnc3ccccc3n2)cc1 (stereo not drawn) | inconclusive: 20 µM [inhibitor, single point]
COc1ccc(Nc2cc(C(=O)NCCCN3CCN(C)CC3)c3ccccc3n2)c(OC)c1 | inconclusive: 25.1 µM [inhibitor, partial curve]
CCN(CC)S(=O)(=O)c1cccc(NC(=O)/C=C/c2ccc([N+](=O)[O-])cc2)c1 | inconclusive: 7.94 µM [inhibitor, partial curve, poor fit]
CCOc1ccc(-c2cc3nc(C4CCN(C(=O)OC(C)(C)C)CC4)c(C(=O)Nc4cccc(Cl)c4C)cn3n2)cc1 | inactive
COc1cccc(NC(=O)CSc2nnc(Cc3cccn3C)n2-c2ccc(F)cc2)c1 | inactive
O=C1NC(NS(=O)(=O)c2ccccc2)(C(F)(F)F)C(=O)N1CCc1ccccc1 (stereo not drawn) | inactive
CC(C)S(=O)(=O)C1=NSC2=NC(=O)/C(=C\c3ccc(-c4ccccc4)o3)C(=N)N21 | inconclusive: 3.55 µM [inhibitor, full curve]

Compound | Potency
CCOC(=O)C(C)Sc1nc(-c2ccco2)cc(C(F)(F)F)c1C#N (stereo not drawn) | inconclusive: 11.2 µM [inhibitor, partial curve]
CC(C)(C)c1cc(/C=N/NC(=O)Cc2nc3ccccc3[nH]2)cc(C(C)(C)C)c1O | inconclusive: 28.2 µM [inhibitor, partial curve]
CCOC(=O)c1ccc(NC(=O)c2noc3c2CCCC3)cc1 | inconclusive: 1.12 µM [inhibitor, full curve, poor fit]
COc1ccc(OC)c(Nc2nc(-c3ccc(O)c(O)c3)cs2)c1 | active: 10 µM
CC(C)C[C@H](NC(=O)c1nc[nH]c1C(=O)NC1CCN(C(=O)OC(C)(C)C)CC1)C(=O)OCc1ccccc1 | inconclusive: 22.4 µM [inhibitor, single point]
CC1CCN(S(=O)(=O)c2ccc3[nH]ccc3c2)CC1 | inactive
O=C(O)c1ccc(COc2ccc3ccccc3c2/C=C2/NC(=O)N(Cc3ccc(F)cc3)C2=O)cc1 | inconclusive: 15.8 µM [inhibitor, partial curve]
Brc1ccc(-c2cn3cc(Cc4ccccc4)sc3n2)cc1 | inconclusive: 39.8 µM [inhibitor, single point]
CCN(CCCNC(=O)CN1N=C(c2ccccc2)CCC1=O)c1cccc(C)c1 | inconclusive: 2.24 µM [inhibitor, partial curve]
CCCCCOc1ccc(Br)cc1CSC(=N)N | inactive
Cc1cc(C)n2nc(C(=O)N/N=C/c3ccccc3Cl)nc2n1 | inconclusive: 39.8 µM [inhibitor, single point]
O=c1c2ccccc2nc(/C=C/c2c[nH]c3ccccc23)n1-c1ccc([N+](=O)[O-])cc1 | inconclusive: 4.47 µM [inhibitor, full curve, poor fit]
CCOc1ccc(CCNC(=O)c2ccc3nc(N4CCC(C)CC4)sc3c2)cc1OCC | inconclusive: 1 µM [inhibitor, partial curve]
CCOC(=O)c1c(NC(=O)C[n+]2ccc(Cc3ccccc3)cc2)sc(C)c1C | inconclusive: 15.8 µM [inhibitor, partial curve]
CCOC(=O)CCc1c(C)c2cc3c(c(C)c2oc1=O)OCN(CCc1ccccc1OC)C3 | inconclusive: 1.78 µM [inhibitor, full curve]
C=CCn1c(-c2cccc(OC)c2)n[nH]c1=S | inactive
O=C1c2ccccc2-c2onc3ccc(N4CCCC4)c1c23 | active: 8.91 µM
O=C1c2cccc3cccc(c23)C(=O)N1c1cccnc1 | inactive
COc1ccc(C(=O)N(Cc2ccco2)Cc2ccccc2F)cc1Cl | inconclusive: 12.6 µM [inhibitor, partial curve, poor fit]
CC(=O)Nc1ccc(S(=O)(=O)Nc2nc3ccccc3nc2Nc2ccc3ccccc3c2)cc1 | inconclusive: 2.24 µM [inhibitor, full curve]
CCOc1ccc2nc(N3C(=O)/C(=C/c4ccc(Cl)cc4)NC3=S)sc2c1 | active: 4.47 µM
Cc1ccc(CNC(=O)CCCCCn2c(=O)c3sccc3n(CC(=O)C(C)(C)C)c2=O)cc1 | inactive
O=C(O)CCc1ccc(-c2ccc(Cl)cc2)n1Cc1ccco1 | inconclusive: 39.8 µM [inhibitor, partial curve]

Compound | Potency
Cc1cc2c(nc1C)CCCN2C[C@@H](C)O/N=C1/[C@H]2CCn3c(=O)n(-c4ccccc4)c(=O)n3[C@H]2[C@H](O)[C@@H]2O[C@H]12 | inconclusive: 39.8 µM [inhibitor, single point]
COc1ccc(Cn2c(CCC(=O)Nc3cc(C)cc(C)c3)nc3cccnc32)cc1 | inactive
CCOCCCn1c(=S)[nH]c2cc3c(cc2c1=O)OCO3 | inactive
Cc1cc(Cl)ccc1N(CC(=O)NCc1ccc2c(c1)OCO2)S(C)(=O)=O | inactive
COc1ccc(NC(=O)c2cc3nc(-c4ccccc4)cc(-c4ccccc4)n3n2)c(OC)c1 | inconclusive: 2.82 µM [inhibitor, full curve, poor fit]
COC(=O)c1[nH]c2cc(C)ccc2c1NC(=O)CN1CCc2cc(OC)c(OC)cc2C1 | inconclusive: 22.4 µM [inhibitor, partial curve]
O=S(=O)(Nc1ccc2c(c1)nc1n2CCN(Cc2ccccc2)C1)c1ccc(Cl)cc1 | inconclusive: 31.6 µM [inhibitor, single point]
C=CCn1c(SCc2cc(C(C)=O)ccc2OCC)nc2ccccc2c1=O | inactive
Cc1ccc(C)c(N2CCN(C(=O)c3ccc(NS(=O)(=O)c4c(C)noc4C)cc3)CC2)c1 | inconclusive: 31.6 µM [inhibitor, single point]
CC(C(=O)OCC(=O)c1ccc([N+](=O)[O-])cc1)N1C(=O)C2C3CCC(C3)C2C1=O (stereo not drawn) | inconclusive: 35.5 µM [inhibitor, partial curve]
CC(C)OC(=O)c1c2c(n3ccccc13)C(=O)c1ccccc1C2=O | active: 11.2 µM
O=C(CCCN1C(=O)c2ccccc2C1=O)N1CCc2ccccc2C1 | inconclusive: 15.8 µM [inhibitor, partial curve, poor fit]
CCCCn1c(-c2csc(C(C)C)c2)n[nH]c1=S | inactive
COc1ccc(NC(=O)c2ccco2)cc1NC(=O)c1cccc(C)c1OC | inconclusive: 25.1 µM [inhibitor, partial curve, poor fit]
Oc1cccc(/C=N/N2CCN(c3ccccn3)CC2)c1 | inconclusive: 2 µM [inhibitor, partial curve]
COc1cc(OC)cc(C(=O)Nc2cc(NC(=O)c3ccco3)ccc2OC)c1 | inactive
CCCCOc1ccc(/C(O)=C2/C(=O)C(=O)N(CCCOC)C2c2ccncc2)cc1 (stereo not drawn) | inactive
Cc1ccc(SCC(=O)Nc2ccc(O)c(-c3nc4cc(C)ccc4o3)c2)cc1 | inactive
Cn1cc(Cl)c(C(=O)Nc2cccc(Cl)c2Cl)n1 | inactive
Cc1cc(O)c(C(C[N+](=O)[O-])c2ccc(Cl)cc2)c(=O)o1 (stereo not drawn) | inconclusive: 28.2 µM [inhibitor, partial curve]
Cc1ccccc1-n1c(SCC(=O)c2ccccc2)nnc1-c1ccc(F)cc1 | inactive
CCC(Sc1ccc2nnc(-c3ccc(F)cc3)n2n1)C(=O)O (stereo not drawn) | inactive
